This is an account of results in the RNAGym collection of RNA variant scans (doi:10.7554/elife.90254).

To fix the notation:
B1: LINE1-mini (parent)
chain: GGCAGAGCUCAACACAGCGUGGCAAAGUGGCUGUGGCUAGACUGCC

Read counts are not given, so values of variants with three or more changes are uncertain.

The data set covers variants of B1. The data set can be described thus: self-cleavage, relative activity (ratio to wild type); higher = more cleavage; in vitro, sequencing; the parent is a self-cleaving ribozyme.
Turning to GGCAGAGCUAAUCACAGGGUUGCAAAGUGGCUGUGGCUAGACUGCC [C10A A12U C18G G21U], the self-cleavage was found to be 0.04. Under GGCAGAGCUAGACAUAGCGUGGCAAAGUGGCUGUGGCGAGACUGCC [C10A A11G C15U U38G] stands 0.06. With GGCAGAGCGCAACACAGCGUGGCAAAGUGGCUGUUGCUAGACUGAC [U9G G35U C45A] the figure was 0.02. Under GGCAGAGCUAAUCACAGCGUGGCAAAGUGGCUGUGGCUAGACCGCC [C10A A12U U43C] stands 0.01. In the case of GGCAGAGCGCAACACAGCGUGGCAAAGUGGCUGUGGCUAUAUUGCC [U9G G40U C42U], the self-cleavage was 0.03. Take GGCAGAGCUAAACUCAGCGUGGCAGAGUGGCUGUGGCUAGACUGCC [C10A A14U A25G]: the self-cleavage was found to be 0.01. With GGCAGAGCUAUACACAGCGUGGCUAAGUGGAUGUGGCUAGACUGCC [C10A A11U A24U C31A] the figure was 0.01; with GGCAGAGCUAUACACAGCGUGGCAAAGUGGCUGGGGCUAGGCUGCC [C10A A11U U34G A41G], 0.04; with GGCAGAGCUAACCACAGCGUGGCAAAGUGGCUGUGGGUAGAUUGCC [C10A A12C C37G C42U], 0. Under GGCAGAGCUAUUCACAGCGUGGCAAAGUGGCUGUCGCUAGACUGCC [C10A A11U A12U G35C] stands 0.03. With GGCAGAGCUAAACGCAGCGUGCCAAAGUGGCUGUGGCUAUACUGCC [C10A A14G G22C G40U] the figure was 0.01; with GGCAGAGCUAGACACAGCGUGGCAACGUGGCUGUGGCUAAACUGCC [C10A A11G A26C G40A], 0.01. GGCAGAGCUAUACACAGCGUGGCAAAGUUGCUGUGACUAGACUGCC [C10A A11U G29U G36A]: the self-cleavage is 0.02. With GGCAGAGCUAGACACCGCGUGGCAAAGUAGCUGUGGCUCGACUGCC [C10A A11G A16C G29A A39C] the figure was 0. With GGCAGAGCUAAUCACAGCGUGGCAAAGUGGCUGUGGCUAGAAUGCC [C10A A12U C42A] the figure was 0.02; with GGCAGAGCUAAACCCAGCGUGGCAAAGUGGCUGUGGCUAGACUUCC [C10A A14C G44U], 0.01; with GGCAGAGCUAAUCACAGCGUAGCAAAGUCGCUGUGGCUAGACUGCC [C10A A12U G21A G29C], 0.02. For GGCAGAGCGCAACACAGCGGGGCAAAGUCCAUGUGUUUAGACUGCC [U9G U20G G29C G30C C31A G36U C37U], the self-cleavage worked out at 0.01. GGCAGAGCUAACCCCAGCGUGGCAAGGUGGCUGUUGCUAGACUGCC [C10A A12C A14C A26G G35U]: the self-cleavage was 0.01. Regarding GGCAGAGCUAGACACAGCGUGGCAAAGUGGCUGUGGCUAGACUGAC [C10A A11G C45A], the self-cleavage stood at 0.02. With GGCAGAGCUAUACACAGCGUGGCAAAGUGGCUGUUGCUAGACUGCC [C10A A11U G35U] the figure was 0.01. On to GGCAGAGCUAAACGCAGCGUGGCAAAGUGGCUGUGUCUAGACUGCC [C10A A14G G36U], for which the self-cleavage amounted to 0.01. Under GGCAGAGCUAAACCCAGCGUGGCAAUGUGGCUGUGGCUAGACUGCC [C10A A14C A26U] stands 0.03; under GGCAGAGCUAAGCACAGCGCGGCAAAGUGUCUGUGGCUAGACUGCC [C10A A12G U20C G30U], 0.02; under GGCAGAGCGCAACACAGCGUGGCAAAGUCGCAGUGGCUAGACUUCC [U9G G29C U32A G44U], 0.1. Under GGCAGAGCGCAACACAGCGUGGCAAAGUGGCUGUGGCGAGCCUGCC [U9G U38G A41C] stands 0; under GGCAGAGCGCAACACAGCGUGGCAAAGAGGCUGUGGCUAGACUUCC [U9G U28A G44U], 0.01. Take GGCAGAGCUACACACAGCGUGGCAAAGUGGCUGUGUCUAGACUGCC [C10A A11C G36U]: the self-cleavage was 0.02. Under GGCAGAGCUAUACACAGCGCGGCAUAGUGGCUGUGGCCACACUUCC [C10A A11U U20C A25U U38C G40C G44U] stands 0; under GGCAGAGCUAAGCACAGCGUGGCAAAGGGGCUGUGGCUGGACUGCC [C10A A12G U28G A39G], 0.01. As to GGCAGAGCUAAUCACAGCGUGGCAAAGUGGUUGUGGCUAGACUUAC [C10A A12U C31U G44U C45A], the self-cleavage was found to be 0.02. Under GGCAGAGCGCAACACAGCGUGGCAAAGUGGCGGUCGCUAGACUGCC [U9G U32G G35C] stands 0.02. As to GGCAGAGCGCAACACAGCGAGGCAUAGUGGCUGUGGCUAGACUGCC [U9G U20A A25U], the self-cleavage was 0.03.

Turning to GGCAGAGCGCAACACAGCGAGGCACAGUGGCUGUGGCUAGACUGCC [U9G U20A A25C], the self-cleavage was found to be 0.14.

Consider GGCAGAGCUAAACUCAGCGUGGCAAAGUGGCUGUGGCUAGUCGGAC [C10A A14U A41U U43G C45A], for which the self-cleavage came to 0.01. Regarding GGCAGAGCUAACCACAGCGUGGCAAUGUGGCUGUGGCUAGACUGCC [C10A A12C A26U], the self-cleavage came to 0.01. Take GGCAGAGCUAAGCACAGCGUGGCAAGGUGGCUGUGGCUAGACUCCC [C10A A12G A26G G44C]: the self-cleavage worked out at 0.01.

As for GGCAGAGCUAACCACAGCGUGGCAAAGUGGCUGUGGCUAGACUGAC [C10A A12C C45A], the self-cleavage worked out at 0.01. GGCAGAGCGCAACACAGCGUGGCAAAGUGGCGGGGCCUAGACUGCC [U9G U32G U34G G36C]: the self-cleavage came to 0. Under GGCAGAGCUAUAGACAGCGGGGCAAAGUGGCUGUGGCUAGACUGCC [C10A A11U C13G U20G] stands 0.01; under GGCAGAGCUAUACACAGUUGGGCAAAGUGGAUGUGGCUAGACUGAC [C10A A11U C18U G19U U20G C31A C45A], 0.01.

As to GGCAGAGCUAGACACAGGGUAGCAAAGUGUCUGUGGCUAGACUGCC [C10A A11G C18G G21A G30U], the self-cleavage was 0.04. As for GGCAGAGCGCAACACAGCGCGGGAAAGUGGCUGUGGCUAGACAGCC [U9G U20C C23G U43A], the self-cleavage is 0.03. Regarding GGCAGAGCUACACACAGCGUGUCAAAGUGGCUGUGGCUUGACUGCC [C10A A11C G22U A39U], the self-cleavage was found to be 0.01. With GGCAGAGCUAAGCACAGCGUGGCAAGGUGGCAGUGGCUAGACUGCC [C10A A12G A26G U32A] the figure was 0.03. In the case of GGCAGAGCUAACCACAACGUGGUAAAGUGGGUGUGGUUAGACUGCC [C10A A12C G17A C23U C31G C37U], the self-cleavage is 0. With GGCAGAGCUAAACGCAGCGUGGCAAGGUGGCUGUGGCUGGACUGCC [C10A A14G A26G A39G], the self-cleavage is 0.06. Under GGCAGAGCUACACACAGCGUGGCAAAGUGGCUGUGGCUGGACUUCC [C10A A11C A39G G44U] stands 0.04; under GGCAGAGCUAAACCCGGCGUGGCAAAGUGGCUGUGGCUAGACUGCC [C10A A14C A16G], 0.05; under GGCAGAGCUAAACCUAGCGUGGCAAAGUGGCUGUGGCUAGACUGGC [C10A A14C C15U C45G], 0.02. As for GGCAGAGCUAAACCCAGCGUGGCAUAGUUGCUGUGGCUACUCUGCC [C10A A14C A25U G29U G40C A41U], the self-cleavage was 0.01. As for GGCAGAGCGCAACACAGCGUGGCAAAGUGGCGGUGGCUAGAGUGCC [U9G U32G C42G], the self-cleavage worked out at 0.01. As for GGCAGAGCUAAACGCCUCGUGGCAAAGUGGCUGUGGCUAGACUGCC [C10A A14G A16C G17U], the self-cleavage worked out at 0.02.

In the case of GGCAGAGCUACACAGAGCGUGGCCAAGUCGCUUUUGCUUGACUGCC [C10A A11C C15G A24C G29C G33U G35U A39U], the self-cleavage came to 0. Under GGCAGAGCUAACCAAAGCGUGCCAAAGUGGCUGUGGCUAGACUGCC [C10A A12C C15A G22C] stands 0; under GGCAGAGCGCAACACAGCGUGGCAAAGUGCCUGAGGCUAGACUAAC [U9G G30C U34A G44A C45A], 0.
